The whole screen tested about 94,000 compounds, of which about 6,200 (6.6%) were called active. Inconclusive results, whose numbers are uncertain, are shown with a selection of clear calls. Calls come from the whole dose curve; as a rule, active = well fitted inhibition curve with a large enough effect; inconclusive = small, poorly fitted or top-dose-only effect; inactive = flat fitted curve, though single readings scatter. Potencies beside an inconclusive call are fits to weak or partial responses and may not hold up.
test: Cytotoxic Profiling in HEK 293 Cell Line of Diverse Libraries Using Quantitative High-Throughput Screening; conditions: HEK 293 viability, ATP luminescence (CellTiter-Glo), 48-72 h; activity change, negative = cytotoxicity: at 115 µM (top of the series) unless noted; series mostly up to 115 µM; note: nearly all actives have a fitted effect of over 60% in size
In short: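 CellTiter-Glo luminescence (cellular ATP) was read after 48 or 72 hr of compound exposure at 37 degree Celsius. Cells were HEK 293 plated at 250 cells/well.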
% is set by controls: 0 for no effect and ±100 for the full control effect; potency is the fitted concentration of half-maximal effect; tags give direction and shape of the fitted curve.

Row | SMILES | Potency | activity change, negative = cytotoxicity | outcome
1 | Cc1ccc(C(=O)NC2CCN(Cc3cccc(-c4cccc(C)c4)c3)CC2)cc1 | active: 39.8 µM | – | –
2 | COc1ccccc1-c1[nH]nc2ncc(C(=O)N(C)c3ccccc3)nc12 | active: 89.1 µM | – | –
3 | Clc1ccccc1-c1cc(C2CCN(Cc3cc4n(n3)CCNC4)CC2)[nH]n1 | inconclusive: 100 µM [inhibitor, single point] | – | –
4 | O=C(C1CCCN1C(=O)c1cccc(-c2cccnc2)c1)N1CCC(c2ccccc2)CC1 (stereo not drawn) | inconclusive: 50.1 µM [inhibitor, partial curve, poor fit] | – | –
5 | O=C(NCc1ccc(F)cc1)N1CCC(c2noc(-c3ccccn3)n2)C1 (stereo not drawn) | – | inactive: -14.3% | –
6 | CCCNC(=O)CC(c1ccccc1OC)c1c[nH]c2c(CC)cccc12 (stereo not drawn) | inconclusive: 50.1 µM [inhibitor, partial curve, poor fit] | – | –
7 | O=C(NC1CCCN(c2ccc3nnc(C4CC4)n3n2)C1)c1ccccc1F (stereo not drawn) | – | inactive: -18% | –
8 | COc1ccccc1C(O)c1nc(Nc2ccc(C(F)(F)F)cc2)n[nH]1 (stereo not drawn) | active: 89.1 µM | – | –
9 | CCN(Cc1ccccc1)C(=O)CC1CCCN(c2cnn(CC)c(=O)c2)C1 (stereo not drawn) | inconclusive: 79.4 µM [inhibitor, single point] | – | –
10 | CCC1(N2CCN(C(=O)CCc3c[nH]c4ccccc34)CC2)CCN(S(C)(=O)=O)C1 (stereo not drawn) | – | inactive: -25.4% | –
11 | Cc1ccc(C(=O)N2CCCC(C(=O)N3CCC(c4nc5ncccc5[nH]4)C3)C2)cc1 (stereo not drawn) | – | – | inactive
12 | O=C1N(C2CCNCC2)C(c2ccccc2)C12CCCC2 (stereo not drawn) | – | inactive: 2.74% | –
13 | CC(C)(O)CCc1ccc(C(=O)NCc2noc(-c3ccco3)n2)cc1 | – | inactive: 0.822% | –
14 | N#Cc1cccc(C(=O)N2CCC3(CC2)NC(=O)N(Cc2cccc(Cl)c2)C3=O)c1 | inconclusive: 56.2 µM [inhibitor, partial curve, poor fit] | – | –
15 | O=C1CC(c2ccccc2)N(C(=O)CNS(=O)(=O)c2ccc3c(c2)CCC3)CCCCCCN1 (stereo not drawn) | inconclusive: 50.1 µM [inhibitor, partial curve, poor fit] | – | –
16 | Cc1ccc2c(C(=O)Nc3ccc(F)cc3)cnn2c1 | inconclusive: 63.1 µM [inhibitor, full curve, poor fit] | – | –
17 | O=C(NCC(=O)N1CCCC1)c1ccc(-c2cccc(C(F)(F)F)c2)cc1 | inconclusive: 10 µM [inhibitor, full curve, poor fit] | – | –
18 | Cc1nn2c(c1-c1ccccc1C(C)C)N(C(=O)c1cc3ccccc3n1C)CCC2 | active: 50.1 µM | – | –
19 | O=C(CCc1conc1-c1ccccc1F)NCc1cc(F)cc(F)c1 | – | inactive: -26.6% | –
20 | COc1ccccc1CC(=O)N1CCC(Cc2nc(-c3ccc(F)cc3)no2)CC1 | inconclusive: 56.2 µM [inhibitor, partial curve, poor fit] | – | –
21 | CSCC(=O)N1C[C@@H](NC(=O)NC(C)C)C[C@H]1C(=O)N[C@@H](Cc1cccs1)C(N)=O | – | inactive: -3.38% | –
22 | O=C(O)Cn1nc(C2CC2)nc1CCc1nc2ccccc2s1 | – | inactive: -2.14% | –
23 | O=C(NC1CC1)c1ccccc1OCC1CCCN(Cc2cccc3[nH]ccc23)C1 (stereo not drawn) | active: 35.5 µM | – | –

Row | SMILES | Potency | activity change, negative = cytotoxicity | outcome
24 | Cc1ccc(C2Cn3nnc(C(=O)N4CCC(C(=O)NCc5ccc(F)cc5)CC4)c3CO2)cc1 (stereo not drawn) | – | inactive: 1.29% | –
25 | COCCN1C(=O)CO[C@H]2CN(CCCc3ccccc3)C[C@H]21 | inconclusive: 17.8 µM [inhibitor, full curve, poor fit] | – | –
26 | O=C(CNC(=O)c1ccc(-c2cnc3ccccc3c2)cc1)NCc1ccccc1 | inconclusive: 7.94 µM [inhibitor, partial curve, poor fit] | – | –
27 | COc1cccc(CN2CCC(N3C(=O)c4c(c(C)nn4-c4ccccc4)C3C3CC3)CC2)c1 (stereo not drawn) | active: 35.5 µM | – | –
28 | CCOc1ccccc1CN1CCCCCCNC(=O)CC1c1ccccc1 (stereo not drawn) | active: 31.6 µM | – | –
29 | CCC1Oc2ccc(NC(=O)c3ccc([N+](=O)[O-])cc3)cc2CN(Cc2ccccc2F)C1=O (stereo not drawn) | inconclusive: 31.6 µM [inhibitor, partial curve] | – | –
30 | CC1=C[C@@H](CNC(=O)C2CCCCC2)[C@H](C(C)C)C[C@H]1Cc1nc2ccccc2n1C | active: 31.6 µM | – | –
31 | C[S+](=O)([O-])c1ccc(-c2cnc3[nH]cc(CC(=O)N4CCOCC4)c3c2)cc1 | – | inactive: -3.13% [at 172 µM] | –
32 | CS(=O)(=O)N(C1CCOCC1)C1CN(S(=O)(=O)c2ccccc2)C1 | – | inactive: -18.5% | –
33 | O=c1n(CCN2CCCN([S+](=O)([O-])c3cccc(C(F)(F)F)c3)CC2)nc2n1CCCC2 | – | inactive: -10.1% | –
34 | COCC(=O)NC1CCC12CCN(C(=O)c1ccc3[nH]ccc3c1)CC2 (stereo not drawn) | – | – | inactive
35 | COc1ccc(-c2ccc(C(=O)N3CCN(C(=O)c4ccccc4OC)CC3)cc2)nn1 | – | inactive: 0.833% | –
36 | Cc1ccc(-c2noc([C@@H]3CCCN3C(=O)c3cc(Cl)ccc3F)n2)cc1 | inconclusive: 28.2 µM [inhibitor, full curve] | – | –
37 | Cc1ccccc1C(=O)N1CC2(Cc3ccccc3NC2=O)C1 | – | inactive: -29.9% | –
38 | CC(=O)Nc1cccc(-c2n[nH]c3c2CC(=O)N(CCOc2ccccc2)C3)c1 | inconclusive: 39.8 µM [inhibitor, full curve] | – | –
39 | CC1(C(=O)N2CCCC2)CCCc2cnc(Nc3ccccc3)nc21 (stereo not drawn) | inconclusive: 79.4 µM [inhibitor, partial curve] | – | –
40 | COCCCNC(=O)c1ccc2nnc(-c3ccc(OC(F)(F)F)cc3)n2c1 | – | inactive: -22% | –
41 | Cc1cc(C)c(CNC(=O)c2cc(-c3cnn(C)c3C)cc3c2OCCN3C(C)C)c(=O)[nH]1 | inconclusive: 89.1 µM [inhibitor, single point] | – | –
42 | CN1CCN(C(=O)c2ccc3c(c2)OCCO3)CC1=O | – | inactive: 3.69% | –
43 | Cc1ccc(F)c(OCC(=O)c2ccc3c(c2)N(CCCC(=O)NCC2CCCO2)C(=O)CO3)c1 (stereo not drawn) | inconclusive: 50.1 µM [inhibitor, partial curve, poor fit] | – | –
44 | CC1=C[C@@H](CNC(=O)CCC(=O)O)[C@H](C(C)C)C[C@H]1Cc1nc2ccccc2n1C | inconclusive: 126 µM [inhibitor, single point] | – | –
45 | COCc1nncn1C1CCN(C(=O)c2cc(C)cc(C)c2)CC1 | – | inactive: -4.26% | –
46 | O=C(NCC1CC1)C1CN(c2cccc(Cl)c2)C(=O)N1 (stereo not drawn) | inactive | – | –

Row | SMILES | Potency | activity change, negative = cytotoxicity | outcome
47 | CCCCNC(=O)c1cccc2c1CCN2C(=O)Nc1ccc(C)cc1 | inconclusive: 44.7 µM [inhibitor, partial curve, poor fit] | – | –
48 | CCC1Oc2ccc(NC(=O)c3c(F)cccc3F)cc2CN(Cc2ccc3c(c2)OCO3)C1=O (stereo not drawn) | inconclusive: 10 µM [inhibitor, full curve, poor fit] | – | –
49 | O=C(Cc1cccc(C(F)(F)F)c1)N1CCN(c2nnc3ccc(Cl)cn23)CC1 | inconclusive: 89.1 µM [inhibitor, single point] | – | –
50 | C[S+](=O)([O-])NC1CC2(CCN(Cc3ccc(O)cc3)CC2)c2ccccc21 (stereo not drawn) | – | inactive: -13.3% | –
51 | O=C(Cc1ccc(OC(F)(F)F)cc1)Nc1cccn2nc(C3CC3)nc12 | inconclusive: 50.1 µM [inhibitor, partial curve, poor fit] | – | –
52 | Cc1cn2nc(C(=O)NCC3CCCCC3)cc2c(=O)[nH]1 | – | inactive: -2.76% | –
53 | COc1ccc(CN2CCc3nc(C(=O)Nc4ccc(Cl)cc4)oc3CC2)cc1OC | inconclusive: 39.8 µM [inhibitor, partial curve, poor fit] | – | –
54 | COc1ccc(CN2CCc3nc(C(=O)N4CCOCC4)oc3CC2)cc1OC | inconclusive: 100 µM [inhibitor, partial curve, poor fit] | – | –
55 | COc1ccc(Nc2ccnc(N3CCN(C(=O)Nc4ccccc4)CC3)n2)cc1 | active: 25.1 µM | – | –
56 | O=C(CCc1nc2ccccc2s1)N1CCC(c2noc(-c3ccncc3)n2)C1 (stereo not drawn) | inconclusive: 44.7 µM [inhibitor, partial curve, poor fit] | – | –
57 | COc1ccc(-c2ccc3ncn(-c4ccc(F)cc4F)c(=O)c3n2)cc1OC | inconclusive: 100 µM [inhibitor, partial curve, poor fit] | – | –
58 | COc1ccc(CCC(=O)N2CCC3(CC2)NC(=O)N(c2cccc(Cl)c2)N3)cc1 | inconclusive: 89.1 µM [inhibitor, single point] | – | –
59 | CC(=O)N(C1CC1)C1CCOC2(CCN(C(=O)c3cc(-c4ccccc4)n[nH]3)CC2)C1 (stereo not drawn) | inconclusive: 50.1 µM [inhibitor, partial curve, poor fit] | – | –
60 | O=C(NCCC1CCCCC1)C1CCCN(Cc2cccc(-c3ccsc3)c2)C1 (stereo not drawn) | active: 44.7 µM | – | –
61 | CC(C)(C)c1ccc(NC(=O)O[C@@H]2CO[C@H]3[C@@H]2OC[C@@H]3Nc2nccc(-c3cccc(F)c3)n2)cc1 | inconclusive: 44.7 µM [inhibitor, partial curve, poor fit] | – | –
62 | CN(C(=O)C1(c2ccc(Cl)cc2)CCOCC1)C1CCc2ccccc21 (stereo not drawn) | inconclusive: 50.1 µM [inhibitor, partial curve, poor fit] | – | –
63 | COc1cccc(C(=O)N2CCC(n3cc(-c4nc(-c5ccccc5)no4)nn3)CC2)c1 | active: 44.7 µM | – | –
64 | COc1ccc2cc(C(=O)NCC(=O)N3CCCCCCNC(=O)CC3c3ccccc3)[nH]c2c1 (stereo not drawn) | inconclusive: 89.1 µM [inhibitor, single point] | – | –
65 | Cc1ccc(SCCN(C)c2cc(C3CC(O)C3)nc(N)n2)cc1 (stereo not drawn) | active: 28.2 µM | – | –
66 | N#Cc1cccc(-c2c(C(=O)NCC(F)(F)F)nc3sccn23)c1 | – | – | inactive [at 172 µM]
67 | COc1ccc(C(=O)N[C@@H]2CN(C(=O)Nc3ccc(F)cc3)CCC[C@H]2O)cc1 | inconclusive: 112 µM [inhibitor, partial curve] | – | –
68 | O=C(CN1CCCc2nc(-c3ccccc3)ncc2C1=O)N1CCOCC1 | inconclusive: 63.1 µM [inhibitor, partial curve, poor fit] | – | –
